The source gives no read counts; variants with many changes may rest on few reads.
B1: LINE1-mini (parent)
chain: GGCAGAGCUCAACACAGCGUGGCAAAGUGGCUGUGGCUAGACUGCC

Variants of: B1
Assay: self-cleavage, relative activity (ratio to wild type); higher = more cleavage; in vitro, sequencing; the parent is a self-cleaving ribozyme

Variant	self-cleavage
C3G G35U G40A A41G G44A	0.11
C3G U9A A39G	0.96
C3U A6C A16U C45G	0.09
C3G G29C C31A	0.09
C3U A11G G19A U28A	0.01
C3U A24U C45A	0.13
C3U A4C U20C G44U	0.09
C3G U9G A16U G29U G30A	0.11
C3G U9C C13A A14G C23G U43C	0.02
C3U A12U G19A G29A G35A	0.03
C3G G17C G40U	0.07
C3U A16U A26U G30C U38C	0.21
C3G G19C C37G	0.02
C3G G7C C15A	0.02
C3G U9A G30A	0.3
C3U A6C G27C G33A	0.05
C3G G7U A11C C15U C42G	0.01
C3U A4U G27A C42A	0.05
C3U A16G G21U A41U	0.61
C3G G17U A25G A26U	0.13
C3U A11U U43A	0.08

Variant	self-cleavage
C3G G5A G17U C23U A26U C42G	0.15
C3G C42A G44A	0.08
C3G G7U C37U	0.04
C3G U43A G44A	0.04
C3U A16U U43A	0.1
C3U A11C C45A	0.01
C3G U28A U43A	0.08
C3G U32C U34G A39U	0.11
C3G G5C A14G C45G	0.08
C3U A25U A26G G44C	0.14
C3U A6G C10A C15U G27A	0.03
C3U A25C G35A C46A	0.02
C3U A6U A16C C23A C46G	0.12
C3U A11C G21U G36A C45A	0.03
C3G U32G G35C	0.17
C3U A4U G19U	0.01
C3U A16U U28G C42A	0.05
C3U C8A A11G G21A G22U	0.02
C3U A4C A26C G29A	0.04
C3G U9C A12G	0.03
C3U A4G G22U C45U	0.07

Variant	self-cleavage
C3G G27A G44A	0.87
C3U A11U A12C G17C G30C U34G	0.01
C3G U20A G35A C46A	0.05
C3G G19U A25U G35A A41C	0.03
C3U A11C U20A G33U G36C G44U	0
C3U A6U C8U U9G U20C A25C	0.05
C3U A6G G30U C37A	0.38
C3G U20C G30A	0.15
C3U A4U G7A G40A	0.07
C3G C45A C46U	0.06
C3U A11C C13G G17U G30A	0.02
C3U A6G G44U	0.12
C3G G30A G36C U43G	0.09
C3G G7U A24C A25G	0.31
C3G G5C A25U G30U A39U G40U	0.17
C3G G5A C10A G30U U32G U38A	0.03
C3U A4G G44U	0.16
C3G G33U U38G	0.07
C3G G5A G29A G30U	0.21
C3U A11U G19C G36C	0.02
C3U A6C A12U A16G G17C A25G C31U G35U	0.05

Variant	self-cleavage
C3G G36A G40A	0.69
C3U A12C A25U G30U G33A	0.1
C3G G27U C46A	0.1
C3U A25G C46A	0.08
C3U A26C G40U C42A	0.11
C3U A24C U34A	0.08
C3G G27A G40U C45G	0.09
C3U A4U G7A U28G C31A U38A G40C	0
C3U A14U C15G C45G	0.04
C3G U9C U34C	0.02
C3G G5U U9A A41G	0.09
C3U A14G G21A A26G G35C	0.09
C3G G7C C18A U34G	0.03
C3U A11G G33U C42A	0.01
C3U A11U C23U G33U	0.01
C3U A14C A26C C45U	0.1
C3U A14G C31G	0.05
C3G G21U G35C C37G U38A G40A	0.03
C3G G29A A41G C46U	0.06
C3G G5C C18G A26C	0.03

Source: the RNAGym collection of RNA variant scans (doi:10.7554/elife.90254)
